Experimental data taken from PubChem BioAssay AID1159614 (National Center for Advancing Translational Sciences (NCATS), 2016).
The whole screen tested about 45,000 compounds, of which about 65 (0.1%) were called active. Calls come from the whole dose curve; as a rule, active = well fitted activation curve with a large enough effect; inconclusive = small, poorly fitted or top-dose-only effect; inactive = no such curve, though single readings can be large or run the other way. Some of the results follow.

Each compound was assayed against Galactocerebrosidase (Homo sapiens) (UniProt P54803) (assay: A Novel Cell-Based Assay to Identify Small Molecules for B -Galactocerebrosidase). Conditions: 145M-Twi-hGALC-G270D cells (Twitcher mouse brain line with human GALC G270D), HMU-beta-Gal fluorescence, 48 h; series mostly up to 57.5 µM; activation: at the top concentration.
Procedure, shortened: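 Live 145M-Twi cells (Twitcher mouse brain-derived, GALC-null) stably expressing human GALC-G270D, with a wild-type GALC line, were compound-treated. Residual GALC activity was then read as fluorescence from 0.1 mM final HMU-β-gal at pH 5.2; higher signal means activation.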
Note: 0% is about no effect; nearly all actives have a fitted effect of over 65% in size.

UniProt P54803, sequence (P54803 whole entry, looked up): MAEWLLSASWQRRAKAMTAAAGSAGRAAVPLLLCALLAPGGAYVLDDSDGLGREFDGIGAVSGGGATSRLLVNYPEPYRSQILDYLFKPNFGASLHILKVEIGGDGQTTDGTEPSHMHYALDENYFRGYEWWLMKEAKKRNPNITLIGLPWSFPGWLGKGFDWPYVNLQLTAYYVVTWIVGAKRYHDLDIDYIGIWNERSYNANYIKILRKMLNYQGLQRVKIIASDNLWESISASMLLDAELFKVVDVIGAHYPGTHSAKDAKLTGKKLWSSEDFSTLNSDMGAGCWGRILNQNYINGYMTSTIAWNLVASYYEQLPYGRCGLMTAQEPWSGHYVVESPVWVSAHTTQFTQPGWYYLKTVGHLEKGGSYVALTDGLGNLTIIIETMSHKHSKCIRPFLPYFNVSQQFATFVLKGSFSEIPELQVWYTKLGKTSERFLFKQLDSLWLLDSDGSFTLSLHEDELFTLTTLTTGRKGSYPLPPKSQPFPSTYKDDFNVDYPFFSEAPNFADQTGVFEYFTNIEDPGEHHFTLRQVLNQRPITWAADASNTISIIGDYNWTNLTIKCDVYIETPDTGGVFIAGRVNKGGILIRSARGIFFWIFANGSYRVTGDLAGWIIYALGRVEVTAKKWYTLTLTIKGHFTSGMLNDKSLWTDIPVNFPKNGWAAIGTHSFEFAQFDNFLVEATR

activation, inactive:
CN1C(=O)c2ccccc2Sc2ccc(NC(=O)N3CCN(c4ccccc4F)CC3)cc21 -16.1%, CCCOc1ccc(C(=O)Nc2cc(-c3nc4cc(C)cc(C)c4o3)ccc2C)cc1 -2.8%, Cc1ccc(-c2noc(-c3ccc(N4CCCCC4)c([N+](=O)[O-])c3)n2)cc1 -12.8%, Clc1ccc(CCNC(c2nnc(-c3ccccc3)o2)c2ccccc2Cl)cc1 (stereo unspecified) -14.8%, CC(C)NC(=O)C1CCN(C(=O)N2CCOc3ccc(Cl)cc32)CC1 -16.2%, CCn1c(SCc2ccccc2Cl)nc(=O)c2c(C(=O)OC)cc(C3CC3)nc21 -15%, CNC(=O)COc1ccc(NC(=O)c2ccc(-c3nn(C)c(=O)c4ccccc34)cc2)cc1 -7.18%, CCOC(=O)c1c(NC(=O)c2cc(=O)c3c(C)cc(C)cc3o2)sc(C(C)=O)c1C -15%, CC(=O)Nc1nonc1-c1nnc(SCc2ccc(Cl)cc2)n1C -7.66%, Cc1nn(S(=O)(=O)c2ccc(Cl)cc2)c(C)c1S(=O)(=O)N1CCCCCC1 -4.64%, O=C(O)[C@H](O)[C@@H](O)[C@H](O[C@@H]1O[C@H](CO)[C@H](O)[C@H](O)[C@H]1O)[C@H](O)CO -16%, Cc1cc(C)c2c(-n3cccc3)c(C(=O)NCCCN3CCCCC3C)sc2n1 (stereo unspecified) -17.5%, COc1cc(-c2noc(-c3cc(C(C)C)[nH]n3)n2)cc(OC)c1OC -10.9%, NS(=O)(=O)c1ccc(CCNC(=O)c2nc(SCc3ccccc3F)ncc2Cl)cc1 -10.7%, COc1cccc(C2C(C(=O)Nc3ccccc3OC)=C(C)Nc3nc4ccccc4n32)c1 (stereo unspecified) -15.4%, CCc1ccccc1Nc1ncnc2c1nc1n2CCCC1 -7.7%, Cc1ccc2cccc(NC(=O)c3ccc(-c4ccc(Br)cc4)o3)c2n1 -12.4%, Cc1cc(=O)c2cc(C(=O)Nc3ccccc3)ccc2[nH]1 -3.95%, COc1cccc(N2C(=O)N(CC(=O)NCc3cccc(OC)c3OC)c3ccccc3S2(=O)=O)c1 -11.3%, CCc1ccc(-n2c(-c3ccccc3)c(C)n3c4c(=O)n(C)c(=O)n(C)c4nc23)cc1 2.32%, Cc1ccc(O)c(-n2nc3ccccc3n2)c1 -8.52%, Cc1cn2c(=O)cc(COc3ccccc3NC(=O)c3ccccc3C)nc2s1 -12.3%, Cc1ccc(-c2csc(/C(C#N)=C/c3ccccc3Cl)n2)cc1 -5.51%, O=C(Nc1ccc(F)cc1)c1cccn1-c1nnc(N2CCCCC2)s1 -15.3%, CC(=O)O[C@H]1C[C@@H]2CC[C@@H]3[C@H](CC[C@@]4(C)[C@H]3C[C@H]([N+]3(C)CCCCC3)[C@@H]4OC(C)=O)[C@@]2(C)C[C@@H]1N1CCCCC1 -20.1%, COc1ccccc1N1CCN(C(=O)CCS(=O)(=O)c2cc(Br)cc3c2N(C(=O)C2CC2)CC3)CC1 -14.9%, CCOC(=O)c1c(C)oc2nc(C)nc(N3CCN(c4ccccc4)CC3)c12 -13.1%, O=C(CSc1nnc(CNC(=O)c2ccccc2)n1-c1cccc(Cl)c1)Nc1ccccc1F -21.4%, COc1ccc2oc(=O)c(C(=O)NCCc3c(C)[nH]c4ccc(Br)cc34)cc2c1 0.922%, COc1ccc(CNC(=O)c2ccc(Cn3c(=O)c4cccn4c4cccnc43)cc2)cc1OC 4.38%, COc1ccc(N2CCN(C(=O)CCNS(=O)(=O)c3ccc4c(c3)CCN4C(=O)C3CC3)CC2)cc1 -31.2%, CCc1ccc(NC(=O)CSc2cn(CC(=O)N3CCCC3)c3ccccc23)cc1 -18.6%, CCOCCCNC(=O)NC(CCC(C)C)c1c(-n2cccc2)sc2c1CCN(C)C2 (stereo unspecified) 1.55%, O=C(Nc1cc(NC(=O)c2ccccc2Cl)ccc1Cl)c1ccccc1 -8.34%, CCOc1ccccc1CNC(=O)c1ccc2nc(Cc3ccc(OC)cc3)oc2c1 -31.8%, O=C(NCc1cccc(F)c1)C1CCN(C(=O)c2sccc2-n2cccc2)CC1 -21.8%, Cc1cc(C)cc(OCC2CNC(=O)O2)c1 (stereo unspecified) -14.2%, Cc1ccc(C)c(-c2nc(Cn3c(=O)cc(-c4ccccc4)c4c(C)nn(C)c43)c(C)o2)c1 -9.98%, CC(C)(C)C(=O)CSc1nc2ccsc2c(=O)n1Cc1ccccc1F 13%, CC(C(O)c1ccccc1)N(C)CCOC(c1ccccc1)c1ccccc1 (stereo unspecified) -15.1%, Cc1ccc(OCC(=O)Nc2ccc(S(=O)(=O)Nc3ncccn3)cc2)c(C(C)(C)C)c1 -7.03%, CN1CCN(CCCNC(=O)c2cnn(-c3ccccc3)c2-n2cccc2)CC1 5.48%, O=c1c2sc3ccccc3c2n(Cc2cccc(C(F)(F)F)c2)c(=O)n1Cc1ccco1 -13.3%, Cc1cc(C)cc(Nc2cc(C)nc3nncn23)c1 -11.6%, Cc1cccc(-c2nc3scc(CCNC(=O)c4ccc(Br)o4)n3n2)c1 -7.65%, CNC(=O)C1CCC(Cn2c(=O)c3sccc3n(CC(=O)NCc3cccc(OC)c3)c2=O)CC1 (stereo unspecified) -7.07%
